Among all 310,000 compounds or so, about 2,200 (0.71%) showed an effect of 50% or more. The effect is printed as a negative number. Some of the results follow.
Biological target: human ether-à-go-go-related gene (hERG) potassium channel (human, UniProt Q12809)
Assay: primary screen, population patch clamp on CHO cells stably expressing hERG

Chain of human ether-à-go-go-related gene (hERG) potassium channel (Q12809 whole entry, looked up): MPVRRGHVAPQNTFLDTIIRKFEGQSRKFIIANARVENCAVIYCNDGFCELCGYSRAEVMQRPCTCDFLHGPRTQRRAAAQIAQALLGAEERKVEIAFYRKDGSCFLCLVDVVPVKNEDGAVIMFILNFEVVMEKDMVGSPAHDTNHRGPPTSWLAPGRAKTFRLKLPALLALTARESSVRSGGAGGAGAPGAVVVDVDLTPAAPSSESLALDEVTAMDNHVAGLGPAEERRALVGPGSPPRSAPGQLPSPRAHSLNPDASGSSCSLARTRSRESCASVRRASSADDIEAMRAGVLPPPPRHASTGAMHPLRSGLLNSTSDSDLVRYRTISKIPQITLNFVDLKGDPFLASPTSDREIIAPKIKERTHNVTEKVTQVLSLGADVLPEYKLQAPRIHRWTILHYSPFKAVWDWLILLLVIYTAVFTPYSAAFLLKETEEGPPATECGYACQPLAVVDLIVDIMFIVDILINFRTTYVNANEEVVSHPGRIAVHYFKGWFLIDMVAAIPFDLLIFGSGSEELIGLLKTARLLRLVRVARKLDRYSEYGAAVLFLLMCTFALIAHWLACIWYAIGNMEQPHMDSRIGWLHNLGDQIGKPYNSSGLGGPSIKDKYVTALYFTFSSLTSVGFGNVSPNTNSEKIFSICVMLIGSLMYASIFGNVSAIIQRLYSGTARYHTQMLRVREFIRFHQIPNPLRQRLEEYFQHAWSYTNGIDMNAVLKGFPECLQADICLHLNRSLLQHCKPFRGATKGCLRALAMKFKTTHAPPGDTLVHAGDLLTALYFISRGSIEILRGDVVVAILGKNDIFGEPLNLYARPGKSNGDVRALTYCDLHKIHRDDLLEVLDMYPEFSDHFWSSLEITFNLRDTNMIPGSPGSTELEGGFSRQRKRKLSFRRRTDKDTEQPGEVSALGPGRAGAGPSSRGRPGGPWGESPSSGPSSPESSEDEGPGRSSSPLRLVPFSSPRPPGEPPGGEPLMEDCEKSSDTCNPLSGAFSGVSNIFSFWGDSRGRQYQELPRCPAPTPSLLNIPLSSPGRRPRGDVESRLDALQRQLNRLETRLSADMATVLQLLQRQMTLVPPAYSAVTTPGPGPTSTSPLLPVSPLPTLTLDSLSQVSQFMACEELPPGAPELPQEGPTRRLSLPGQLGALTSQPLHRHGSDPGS

Q: With `O=C(NOCc1ccccc1)c1ccc(Cl)cc1` as the compound, how does the “hERG current change (%, negative = inhibition) at 1uM” value read?
A: -0.363%

Q: `Cc1cc(C)c2c(n1)sc1c(N3CCN(CCO)CC3)ncnc12` was tested. Which “hERG current change (%, negative = inhibition) at 1uM” value did it give?
A: 14.9%

Q: Which “hERG current change (%, negative = inhibition) at 1uM” value does the source give for `Cc1ccc(-c2cc(-c3ccco3)c(C#N)c(=O)[nH]2)cc1` here?
A: 13.1%

Q: For `Cc1ccc(NC(=O)COC(=O)c2nn(C)cc2Cl)cc1`, which “hERG current change (%, negative = inhibition) at 1uM” value is on record?
A: -3.33%

Q: `Cn1cc([N+](=O)[O-])c(C(=O)Nc2cc(Oc3ccccc3)cc([N+](=O)[O-])c2)n1` was tested. Which “hERG current change (%, negative = inhibition) at 1uM” value did it give?
A: 4.95%

Q: With `COC(=O)C1CC(O)CN1C(=O)Nc1ccccc1` (stereo not shown) as the compound, how does the “hERG current change (%, negative = inhibition) at 1uM” value read?
A: 7.28%

Q: `Cn1c(CC(=O)Nc2ccccc2Cl)nnc1SCC(=O)NC1CCCCC1` was tested. Which “hERG current change (%, negative = inhibition) at 1uM” value did it give?
A: 17.6%

Q: With `Cl.OC(c1ccc(Cl)cc1)C(CN1CCOCC1)c1ccccc1` (stereo not shown) as the compound, how does the “hERG current change (%, negative = inhibition) at 1uM” value read?
A: 8.75%

Q: With `COc1ccc(NC(=O)CNCCC2=CCCCC2)cc1` as the compound, how does the “hERG current change (%, negative = inhibition) at 1uM” value read?
A: 14.6%

Q: For `Cc1c(C)n(C(=O)CN2CCN(c3ccccn3)CC2)c2ccccc12`, which “hERG current change (%, negative = inhibition) at 1uM” value is on record?
A: 4.72%

Q: For `Cc1ccc(NC(=O)C2CCCN2S(=O)(=O)c2cccc3cccnc23)c(C)c1` (stereo not shown), which “hERG current change (%, negative = inhibition) at 1uM” value is on record?
A: 14.1%

Q: `Brc1ccc(C[n+]2ccccc2)cc1.[Br-]` was tested. Which “hERG current change (%, negative = inhibition) at 1uM” value did it give?
A: 3.75%

Q: For `CCCCOc1ccccc1C1C(C(N)=O)=C(C)Nc2nnnn21` (stereo not shown), which “hERG current change (%, negative = inhibition) at 1uM” value is on record?
A: 20.1%

Q: How did the “hERG current change (%, negative = inhibition) at 1uM” value turn out when `CN1C(=O)N(C)C2C1NC(=O)N2C` (stereo not shown) was run?
A: 0.927%

Q: For `COc1ccc(OC)c(N(CC(=O)Nc2ccccc2C(=O)NCc2ccco2)S(C)(=O)=O)c1`, which “hERG current change (%, negative = inhibition) at 1uM” value is on record?
A: 7.06%

Q: For `Cc1cc(C)nc(N2CCCC(C(=O)NCc3cccs3)C2)n1` (stereo not shown), which “hERG current change (%, negative = inhibition) at 1uM” value is on record?
A: 10.4%

Q: For `Cc1ccc(C2=NS(=O)(=O)N(C)C(C(=O)NCc3ccc(F)cc3)=C2)cc1`, which “hERG current change (%, negative = inhibition) at 1uM” value is on record?
A: -15.9%

Q: How did the “hERG current change (%, negative = inhibition) at 1uM” value turn out when `CCOc1cc(Br)cc(C(c2c(C(=O)O)[nH]c3ccccc23)c2c(C(=O)O)[nH]c3ccccc23)c1O` was run?
A: 13.5%

Q: How did the “hERG current change (%, negative = inhibition) at 1uM” value turn out when `O=C(COc1cccc(Br)c1)N/N=C1\CCCc2ccccc21` was run?
A: 10.5%

Q: Which “hERG current change (%, negative = inhibition) at 1uM” value does the source give for `O=[N+]([O-])c1ccccc1Oc1ccccc1Cl` here?
A: 6.14%

Q: `O=C1C(Cc2cccc([N+](=O)[O-])c2)SC(=Nc2ccccc2)N1c1ccccc1` (stereo not shown) was tested. Which “hERG current change (%, negative = inhibition) at 1uM” value did it give?
A: 14.5%

Q: For `CCOc1ccc(N/C=C/C(=O)c2ccc3ccccc3c2)c([N+](=O)[O-])c1`, which “hERG current change (%, negative = inhibition) at 1uM” value is on record?
A: 1.46%

Q: With `CNC(C)C(=O)NC(C(=O)N1CCCC1C(=O)Nc1ccc2ncccc2c1)C(C)C.O=CO` (stereo not shown) as the compound, how does the “hERG current change (%, negative = inhibition) at 1uM” value read?
A: 10.1%

Q: `NC(=O)COC(=O)/C=C/c1ccccc1[N+](=O)[O-]` was tested. Which “hERG current change (%, negative = inhibition) at 1uM” value did it give?
A: 6.93%

Q: Which “hERG current change (%, negative = inhibition) at 1uM” value does the source give for `O=C(COc1ccccc1O)N1CCN(C(=O)c2ccco2)CC1` here?
A: -3.21%

Source: publication PMC4336329 (PLoS ONE, 2015)
